# According to PubChem BioAssay AID686978 (National Center for Advancing Translational Sciences (NCATS), 2013):
# In all, about 420,000 compounds went through this assay and about 64,000 (15%) were called active. This list was built around the results that the source calls inconclusive (neither active nor inactive); the mix of calls is not that of the screen. Calls come from the whole dose curve; as a rule, active = well fitted inhibition curve with a large enough effect; inconclusive = small, poorly fitted or top-dose-only effect; inactive = flat fitted curve, though single readings scatter. Potencies of inconclusive entries are left out as doubtful fits.
# Assay: qHTS for Inhibitors of human tyrosyl-DNA phosphodiesterase 1 (TDP1): qHTS in cells in absence of CPT; note: nearly all actives have a fitted effect of over 55% in size
# Conditions: DT40 Tdp1-/- hTDP1 cells, no CPT, ATP luminescence, 48 h; activity change, negative = growth inhibition: at 46.2 µM (top of the series) unless noted
# How it was run: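 Chicken DT40 Tdp1-/- cells complemented with human TDP1, screened without camptothecin (DMSO vehicle only), 400 cells/well. Compounds pin-transferred, cells incubated at 37 °C for at least 48 hr. Growth read as ATP-dependent luminescence (CellTiter-Glo, 30 min at RT).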
# % is set by controls: 0 for no effect and ±100 for the full control effect; potency is the fitted concentration of half-maximal effect; tags give direction and shape of the fitted curve.
Structure (SMILES),Potency,"activity change, negative = growth inhibition"
O=C(c1cnccn1)N(Cc1ccco1)C1(C(=O)NC2CCCCC2)CCCCC1,"inconclusive [inhibitor, partial curve]",
O=C1CC(Cc2ccccc2)C(=O)N1c1ccccn1 (configuration not stated),,inactive: 7.69%
COC(=O)[C@@]1(Sc2ccc(C)cc2)CC(=O)N(C(=O)/C=C/c2ccccc2)[C@@H]1c1ccccc1,"inconclusive [inhibitor, single point]",
Cc1cc2cc(CNC(=O)c3ccc(Br)o3)ccc2[nH]1,"inconclusive [inhibitor, single point]",
Cn1cc(/C=N/NC(=O)c2cc3cc(Br)ccc3o2)c2ccccc21,"inconclusive [inhibitor, single point]",
COc1ccccc1NC(=O)c1ccc(COc2ccc3c(c2)CCC3)cc1,,inactive: -17.5%
CCOC(=O)c1cccc(NC(=O)CSc2nncn2-c2ccccn2)c1,,inactive: -21.1%
O=C(O)CNC(=O)/C(=C\c1ccco1)NC(=O)c1ccco1,,inactive: -16.3%
Cc1ccc(/C(N)=N/OC(=O)COc2ccccc2Cl)cc1,,inactive: -27.5%
Cn1nc(C(=O)OCC(=O)N(Cc2ccccc2)C(C)(C)C)c2ccccc2c1=O,,inactive: -26.5%
CC(C)(C#CC(O)(c1ccccc1)c1ccccc1)N1CCCC1,,inactive: -17.9%
COC(=O)c1ccc(C2c3c(n[nH]c3C)C(=O)N2c2ccc(C)cc2)cc1 (configuration not stated),,inconclusive: -31.7% [inhibitor]
COC(=O)/C=C/c1cnc2ccccc2c1,"inconclusive [inhibitor, single point]",
O=C(C[C@@H]1C[C@@H]2c3cc(NS(=O)(=O)c4ccc(F)cc4)ccc3O[C@@H]2[C@H](CO)O1)NCc1ccc(Oc2ccccc2)cc1,"inconclusive [inhibitor, single point]",
COc1ccccc1C(=O)NCCC(=O)NC(C)c1ccc(-n2ccnc2)cc1 (configuration not stated),,inactive: -15.6%
O=C(NCc1cccnc1)c1ccc(Cn2c(=S)[nH]c3ccc(Br)cc3c2=O)cc1,,inactive: -18%
Cc1cc(Cl)c2c(c1)[C@]1(C(=O)N2)[C@@H]2C(=O)N(Cc3ccccc3)C(=O)[C@@H]2[C@@H]2CCCN21,"inconclusive [inhibitor, single point]",
COc1cc(OC)c(NC(=O)N2CCc3c([nH]c4ccccc34)C2c2ccccc2F)cc1Cl (configuration not stated),active: 23.1 µM,
C=C(C)COc1ccc(-c2ncncc2Oc2ccc(OC)cc2)c(O)c1,"inconclusive [inhibitor, single point]",
CCCCN(C(=O)C1=COCCO1)c1c(N)n(CCCC)c(=O)[nH]c1=O,,inactive: 1.07%
O=[N+]([O-])c1ccc(/C=N/Nc2nc(N3CCCC3)nc(N3CCCC3)n2)o1,"inconclusive [inhibitor, single point]",
CCOC(=O)c1cc2c(ccc3nc(C)c(C)c32)[nH]c1C,,inactive: -19.2%
O=C(NCc1ccco1)c1cc2nc(-c3cccs3)cc(C(F)(F)F)n2n1,"inconclusive [inhibitor, single point]",
O=C(CCC(=O)N1CC2CCCN2c2ccccc21)NCc1ccc(F)cc1 (configuration not stated),"inconclusive [inhibitor, partial curve]",

Structure (SMILES),Potency,"activity change, negative = growth inhibition"
CCOc1ccc(OCCOC(=O)CN(C)S(=O)(=O)c2ccc(NC(C)=O)cc2)cc1,,inactive: 0.198%
Cc1cc(C)c(NC(=O)CN2C(=O)c3cccnc3Sc3ccccc32)c(C)c1,,inactive: -30.6%
O=C1CC2c3ccccc3C1C1C(=O)N(CCc3ccccc3)C(=O)C21 (configuration not stated),"inconclusive [inhibitor, single point]",
COCCCn1c(=S)[nH]c2c(sc3ccccc32)c1=O,,inactive: -1.75%
COc1c2c(cc3c1C(CC(O)C(C)C)N(C)CC3)OCO2 (configuration not stated),,inactive: -12.8% [at 9.04 µM]
CCCN(CCC)CCCNC(=O)CN1C(=O)CSc2ccc(S(=O)(=O)N3CCOCC3)cc21,,inactive: 0.458%
CCNC(=O)C1(C)CCCN1Cc1cccc(C(F)(F)F)c1 (configuration not stated),active: 18.4 µM,
CCc1cc(C(=O)Nc2c(C)nn(Cc3ccccc3Cl)c2C)no1,"inconclusive [inhibitor, partial curve]",
CCn1c(SCC(=O)Nc2cccc(C)n2)nc2c1c(=O)n(C)c(=O)n2C,"inconclusive [inhibitor, single point]",
CCOC(=O)C1=C(CN2CCOCC2)NC(=O)NC1c1cc(C)ccc1C (configuration not stated),,inactive: -20%
C=CCNC(=O)c1ccc(-c2nc3ccccc3nc2-c2ccccc2)cc1,"inconclusive [inhibitor, partial curve]",
N#Cc1nc(-c2ccco2)oc1N1CCN(C(c2ccccc2)c2ccccc2)CC1,"inconclusive [inhibitor, single point]",
CCc1ccc(OCCOCC(O)CN2CCN(Cc3ccc(Cl)cc3)CC2)cc1 (configuration not stated),"inconclusive [inhibitor, single point]",
Cn1c(NC(=O)C(C)(C)Oc2ccc(Cl)cc2)cc(=O)n(C)c1=O,"inconclusive [inhibitor, single point]",
Cc1cccc(C)c1C(O)c1ncc(-c2ccccc2C(F)(F)F)[nH]1 (configuration not stated),"inconclusive [inhibitor, single point]",
CCOC(=O)C1CCCN(CC(=O)Nc2nc(-c3ccccc3)cs2)C1 (configuration not stated),"inconclusive [inhibitor, single point]",
Cc1cc(=O)[nH]c(SCC(=O)N2c3ccccc3CC2C)n1 (configuration not stated),,inactive: -13.5%
COc1cc(OC)c(C=Cc2ccncn2)c(OC)c1,"inconclusive [inhibitor, single point]",
COc1ccc(NC(=O)CSc2ccc3c(c2)OCCO3)cc1S(N)(=O)=O,"inconclusive [inhibitor, single point]",
COc1ccc(Nc2ncc(F)c(N3CCOCC3)n2)cc1,"inconclusive [inhibitor, partial curve]",
c1ccc(-n2nnnc2SCc2cccc3nsnc23)cc1,,inactive: -14.3%
CCOC(=O)Nc1ccc2c(c1)N(C(=O)CN(C)C)c1ccccc1S2,"inconclusive [inhibitor, single point]",
CC(C)(C)c1cc(NC(=O)c2cccs2)no1,,inactive: 0.271%
